Paper PMC12820563, “FoxP3 forms a head-to-head dimer in vivo and stabilizes its multimerization on adjacent microsatellites”
Some of the results follow.

The sequences below were run against T1, MBP-FoxP1dN (Mus musculus, UniProt P58462 326-579) (assay: PD-seq (MBP pull-down with sequencing); 20 mM Tris-HCl pH 7.5, 100 mM NaCl, 1.5 mM MgCl2, 0.4 uM protein, 0.1 uM dsDNA library, 30 min, room temperature, amylose pull-down; high values mean tight binding). Conditions: protein: recombinant; tags: His6-MBP; chain copies: 2; dsDNA, one strand shown.
T1 sequence: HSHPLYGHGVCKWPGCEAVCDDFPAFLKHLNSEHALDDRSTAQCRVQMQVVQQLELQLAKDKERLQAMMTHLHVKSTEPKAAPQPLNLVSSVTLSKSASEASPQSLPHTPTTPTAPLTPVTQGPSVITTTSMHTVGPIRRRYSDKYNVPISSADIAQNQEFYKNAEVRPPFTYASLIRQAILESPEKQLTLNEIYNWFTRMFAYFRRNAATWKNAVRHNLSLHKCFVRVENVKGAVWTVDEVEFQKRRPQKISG
In short: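 Binding is given as reads-per-million enrichment, pull-down over input, with replicates pooled. The bait was an N-terminus-lacking mouse FoxP3 or FoxP1 fragment with a His6-MBP tag, expressed in E. coli and used at 0.4 µM with 0.1 µM Klenow-filled degenerate double-stranded DNA library for 30 min at room temperature in Tris pH 7.5 buffer with NaCl and MgCl2. Amylose resin pull-down with three washes was followed by proteinase K release, PCR barcoding and Illumina sequencing.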
In the case of “GATGATTGTTCTCCCAGCTGATGAATTTGTGATTTCGAGTAAACAAATTTTCCTAATCTTTCTGTTCAAGCGCCATCTAC”, the binding signal is reported as 1.41 RPM ratio (pull-down/input).
In the case of “GATGATTGTTCTCCCAGCTGATGAATTTGTATTATCGAGTAAACAAATTTTCCTAATCTTTCTGTTCAAGCGCCATCTAC”, the binding signal is reported as 2.13 RPM ratio (pull-down/input).
With “GATGATTGTTCTCCCAGCTGATGAATTACCCCGCTCGAGTAAACAAATTTTCCTAATCTTTCTGTTCAAGCGCCATCTAC” the binding signal was 0.848 RPM ratio (pull-down/input).
In the case of “GATGATTGTTCTCCCAGCTGATGAATTATAAGCATCGAGTAAACAAATTTTCCTAATCTTTCTGTTCAAGCGCCATCTAC”, the binding signal is reported as 1.33 RPM ratio (pull-down/input).
With “GATGATTGTTCTCCCAGCTGATGAATTTTTGCGTTCGAGTAAACAAATTTTCCTAATCTTTCTGTTCAAGCGCCATCTAC” the binding signal was 1.08 RPM ratio (pull-down/input).
With “GATGATTGTTCTCCCAGCTGATGAATTAGGCCCTTCGAGTAAACAAATTTTCCTAATCTTTCTGTTCAAGCGCCATCTAC” the binding signal was 0.851 RPM ratio (pull-down/input).
“GATGATTGTTCTCCCAGCTGATGAATTCGTTCTTTCGAGTAAACAAATTTTCCTAATCTTTCTGTTCAAGCGCCATCTAC” was tested, and the binding signal was 0.832 RPM ratio (pull-down/input).
For “GATGATTGTTCTCCCAGCTGATGAATTTACGAGCTCGAGTAAACAAATTTTCCTAATCTTTCTGTTCAAGCGCCATCTAC”, the binding signal was 1.18 RPM ratio (pull-down/input).
With “GATGATTGTTCTCCCAGCTGATGAATTTCGTGGATCGAGTAAACAAATTTTCCTAATCTTTCTGTTCAAGCGCCATCTAC” the binding signal was 0.859 RPM ratio (pull-down/input).
For “GATGATTGTTCTCCCAGCTGATGAATTCTTAAGGTCGAGTAAACAAATTTTCCTAATCTTTCTGTTCAAGCGCCATCTAC”, the binding signal was 0.814 RPM ratio (pull-down/input).
In the case of “GATGATTGTTCTCCCAGCTGATGAATTGGTTCCCTCGAGTAAACAAATTTTCCTAATCTTTCTGTTCAAGCGCCATCTAC”, the binding signal is reported as 0.916 RPM ratio (pull-down/input).
“GATGATTGTTCTCCCAGCTGATGAATTGTTCCACTCGAGTAAACAAATTTTCCTAATCTTTCTGTTCAAGCGCCATCTAC” was tested, and the binding signal was 1.12 RPM ratio (pull-down/input).
With “GATGATTGTTCTCCCAGCTGATGAATTAGGGTGGTCGAGTAAACAAATTTTCCTAATCTTTCTGTTCAAGCGCCATCTAC” the binding signal was 0.854 RPM ratio (pull-down/input).
In the case of “GATGATTGTTCTCCCAGCTGATGAATTATTAACATCGAGTAAACAAATTTTCCTAATCTTTCTGTTCAAGCGCCATCTAC”, the binding signal is reported as 1.32 RPM ratio (pull-down/input).
For “GATGATTGTTCTCCCAGCTGATGAATTTGCTACATCGAGTAAACAAATTTTCCTAATCTTTCTGTTCAAGCGCCATCTAC”, the binding signal was 1.16 RPM ratio (pull-down/input).
In the case of “GATGATTGTTCTCCCAGCTGATGAATTGCTTAATTCGAGTAAACAAATTTTCCTAATCTTTCTGTTCAAGCGCCATCTAC”, the binding signal is reported as 1.19 RPM ratio (pull-down/input).
With “GATGATTGTTCTCCCAGCTGATGAATTTATTTCCTCGAGTAAACAAATTTTCCTAATCTTTCTGTTCAAGCGCCATCTAC” the binding signal was 1.3 RPM ratio (pull-down/input).
With “GATGATTGTTCTCCCAGCTGATGAATTAGTATCCTCGAGTAAACAAATTTTCCTAATCTTTCTGTTCAAGCGCCATCTAC” the binding signal was 1.07 RPM ratio (pull-down/input).
For “GATGATTGTTCTCCCAGCTGATGAATTTTTTCACTCGAGTAAACAAATTTTCCTAATCTTTCTGTTCAAGCGCCATCTAC”, the binding signal was 0.964 RPM ratio (pull-down/input).
For “GATGATTGTTCTCCCAGCTGATGAATTAAGCTGGTCGAGTAAACAAATTTTCCTAATCTTTCTGTTCAAGCGCCATCTAC”, the binding signal was 0.842 RPM ratio (pull-down/input).
“GATGATTGTTCTCCCAGCTGATGAATTTATATGGTCGAGTAAACAAATTTTCCTAATCTTTCTGTTCAAGCGCCATCTAC” was tested, and the binding signal was 1.15 RPM ratio (pull-down/input).
“GATGATTGTTCTCCCAGCTGATGAATTCGAATACTCGAGTAAACAAATTTTCCTAATCTTTCTGTTCAAGCGCCATCTAC” was tested, and the binding signal was 0.906 RPM ratio (pull-down/input).
With “GATGATTGTTCTCCCAGCTGATGAATTTGTCTACTCGAGTAAACAAATTTTCCTAATCTTTCTGTTCAAGCGCCATCTAC” the binding signal was 1.24 RPM ratio (pull-down/input).
“GATGATTGTTCTCCCAGCTGATGAATTTAAGTTATCGAGTAAACAAATTTTCCTAATCTTTCTGTTCAAGCGCCATCTAC” was tested, and the binding signal was 1.1 RPM ratio (pull-down/input).
“GATGATTGTTCTCCCAGCTGATGAATTTGAAACGTCGAGTAAACAAATTTTCCTAATCTTTCTGTTCAAGCGCCATCTAC” was tested, and the binding signal was 0.869 RPM ratio (pull-down/input).
In the case of “GATGATTGTTCTCCCAGCTGATGAATTGTTCCATTCGAGTAAACAAATTTTCCTAATCTTTCTGTTCAAGCGCCATCTAC”, the binding signal is reported as 1.21 RPM ratio (pull-down/input).
For “GATGATTGTTCTCCCAGCTGATGAATTGTGCATGTCGAGTAAACAAATTTTCCTAATCTTTCTGTTCAAGCGCCATCTAC”, the binding signal was 1.2 RPM ratio (pull-down/input).
For “GATGATTGTTCTCCCAGCTGATGAATTTAATTGATCGAGTAAACAAATTTTCCTAATCTTTCTGTTCAAGCGCCATCTAC”, the binding signal was 1.08 RPM ratio (pull-down/input).
In the case of “GATGATTGTTCTCCCAGCTGATGAATTGCGTTTCTCGAGTAAACAAATTTTCCTAATCTTTCTGTTCAAGCGCCATCTAC”, the binding signal is reported as 1.2 RPM ratio (pull-down/input).
“GATGATTGTTCTCCCAGCTGATGAATTACACATTTCGAGTAAACAAATTTTCCTAATCTTTCTGTTCAAGCGCCATCTAC” was tested, and the binding signal was 1.46 RPM ratio (pull-down/input).
In the case of “GATGATTGTTCTCCCAGCTGATGAATTTACTAGTTCGAGTAAACAAATTTTCCTAATCTTTCTGTTCAAGCGCCATCTAC”, the binding signal is reported as 1.39 RPM ratio (pull-down/input).
For “GATGATTGTTCTCCCAGCTGATGAATTGTGTAACTCGAGTAAACAAATTTTCCTAATCTTTCTGTTCAAGCGCCATCTAC”, the binding signal was 1.19 RPM ratio (pull-down/input).
“GATGATTGTTCTCCCAGCTGATGAATTAGGTGACTCGAGTAAACAAATTTTCCTAATCTTTCTGTTCAAGCGCCATCTAC” was tested, and the binding signal was 0.926 RPM ratio (pull-down/input).
In the case of “GATGATTGTTCTCCCAGCTGATGAATTCCTTTTCTCGAGTAAACAAATTTTCCTAATCTTTCTGTTCAAGCGCCATCTAC”, the binding signal is reported as 0.874 RPM ratio (pull-down/input).
For “GATGATTGTTCTCCCAGCTGATGAATTACGTCACTCGAGTAAACAAATTTTCCTAATCTTTCTGTTCAAGCGCCATCTAC”, the binding signal was 1.08 RPM ratio (pull-down/input).
For “GATGATTGTTCTCCCAGCTGATGAATTCTCTTGTTCGAGTAAACAAATTTTCCTAATCTTTCTGTTCAAGCGCCATCTAC”, the binding signal was 0.872 RPM ratio (pull-down/input).
With “GATGATTGTTCTCCCAGCTGATGAATTGCCAAGGTCGAGTAAACAAATTTTCCTAATCTTTCTGTTCAAGCGCCATCTAC” the binding signal was 0.886 RPM ratio (pull-down/input).
With “GATGATTGTTCTCCCAGCTGATGAATTGTTATCTTCGAGTAAACAAATTTTCCTAATCTTTCTGTTCAAGCGCCATCTAC” the binding signal was 1.53 RPM ratio (pull-down/input).
“GATGATTGTTCTCCCAGCTGATGAATTGGTTGTTTCGAGTAAACAAATTTTCCTAATCTTTCTGTTCAAGCGCCATCTAC” was tested, and the binding signal was 1.45 RPM ratio (pull-down/input).
With “GATGATTGTTCTCCCAGCTGATGAATTCCTCTACTCGAGTAAACAAATTTTCCTAATCTTTCTGTTCAAGCGCCATCTAC” the binding signal was 0.84 RPM ratio (pull-down/input).
